This is an account of results in the supplement of paper PMC10369915.

This is one part of the list. Cut-off read from the data, not from the text of the source: active = 3.2 or more and inactive = the rest. Only a few entries rise above the background.
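Note: displayed peptides selected on beads carrying the immobilized SH2 domain, with library peptides lacking any tyrosine serving as negative controls.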

One assay has as its target SHP2 C-SH2 domain E139D. Briefly: enrichment score (SH2-bound / input frequency) (ratio); bacterial display of known human phosphotyrosine sites (pTyr-Var adds point mutants) read by sequencing; higher = stronger binding; tyrosines were phosphorylated by kinases first. The conditions noted are these: peptide library: pTyr-Var.
In the case of YSIDYYRVGGH [NTRK2_Y707_T704I], the enrichment score is inactive: 1.08.
In the case of FKWAVYCIIGR [NUP93_Y391_R388W_YF], the enrichment score was inactive: 1.47.
Still for that read-out and setting: the same measure for DDPRTYQKYGY [OAS1_Y362_R361T]: inactive: 0.53; for ANSSFYSTRSA [NUMA1_Y1836]: inactive: 0.677.
On to VFSIDYFRVGG [NTRK2_Y706_T704I_YF], for which the enrichment score was inactive: 2.7.
MSRDVYSTDFF [NTRK2_Y702_YF]: the enrichment score was inactive: 0.804.
Take YKWAVYCIIGR [NUP93_Y391_R388W]: the enrichment score is inactive: 1.9.
Same read-out and setting: the same measure for CPPEVYAIMRG [NTRK1_Y757]: inactive: 0.458; for SPPEVYAIMRG [NTRK1_Y757_C752S]: inactive: 0.47.
The same measure, in the same setting: in the case of ANSSFHSTRSA [NUMA1_Y1836_Y1836H] it was inactive: 0.431; in that of PESIPYRKFTT [NTRK1_Y701_L700P], inactive: 0.659.
On the same count and under the same terms, in the case of KGKLIYLLRDS [NXPE1_Y350_G353R] it was active: 4.53.
Consider VYSIDYYRVGG [NTRK2_Y706_T704I], for which the enrichment score is inactive: 1.61.
Still for that read-out and setting: the same measure for FDAHNYHPLPV [OAT_Y55_G51D_YF]: inactive: 0.985; for VFSTDYFRVGG [NTRK2_Y706_YF]: inactive: 1.25; for RHPEVYHHLGV [NVL_Y290]: inactive: 2.84.
Regarding ISRDVYSTDFF [NTRK2_Y702_M697I_YF], the enrichment score was inactive: 0.706.
With QAPPIYLDVLG [NTRK1_Y791_V790I], the enrichment score is inactive: 0.813.
Turning to YGAHNYHPLPV [OAT_Y55], the enrichment score is inactive: 1.06.

In the next assay the target is SHP2 C-SH2 domain wild-type. The assay is described as above. The conditions noted are these: peptide library: pTyr-Var.
For the molecule YSIDYYRVGGH [NTRK2_Y707_T704I], the enrichment score was inactive: 1.02.
Same read-out and setting: in the case of FKWAVYCIIGR [NUP93_Y391_R388W_YF] it was inactive: 1.39; in that of DDPRTYQKYGY [OAS1_Y362_R361T], inactive: 0.568.
Same read-out and setting: in the case of ANSSFYSTRSA [NUMA1_Y1836] it was inactive: 0.569; in that of VFSIDYFRVGG [NTRK2_Y706_T704I_YF], inactive: 2.91.
Same read-out and setting: the same measure for MSRDVYSTDFF [NTRK2_Y702_YF]: inactive: 0.616; for YKWAVYCIIGR [NUP93_Y391_R388W]: inactive: 1.44; for CPPEVYAIMRG [NTRK1_Y757]: inactive: 1.25.
As to SPPEVYAIMRG [NTRK1_Y757_C752S], the enrichment score is inactive: 0.589.
Consider ANSSFHSTRSA [NUMA1_Y1836_Y1836H], for which the enrichment score is inactive: 0.366.
As to PESIPYRKFTT [NTRK1_Y701_L700P], the enrichment score is inactive: 0.654.
Still for that read-out and setting: in the case of KGKLIYLLRDS [NXPE1_Y350_G353R] it was active: 3.5; in that of VYSIDYYRVGG [NTRK2_Y706_T704I], inactive: 1.92; in that of FDAHNYHPLPV [OAT_Y55_G51D_YF], inactive: 0.829.
In the case of VFSTDYFRVGG [NTRK2_Y706_YF], the enrichment score is inactive: 1.47.
On the same count and under the same terms, in the case of RHPEVYHHLGV [NVL_Y290] it was active: 3.29.
For the molecule ISRDVYSTDFF [NTRK2_Y702_M697I_YF], the enrichment score was inactive: 0.762.
Take QAPPIYLDVLG [NTRK1_Y791_V790I]: the enrichment score is inactive: 0.894.
Consider YGAHNYHPLPV [OAT_Y55], for which the enrichment score was inactive: 1.06.

The target of a further assay is SHP2 N-SH2 domain L43F. The description is as above. The conditions noted are these: peptide library: pTyr-Var.
Turning to YSIDYYRVGGH [NTRK2_Y707_T704I], the enrichment score was inactive: 0.978.
The same measure, in the same setting: the same measure for FKWAVYCIIGR [NUP93_Y391_R388W_YF]: inactive: 1.22; for DDPRTYQKYGY [OAS1_Y362_R361T]: inactive: 0.599; for ANSSFYSTRSA [NUMA1_Y1836]: inactive: 0.613.
VFSIDYFRVGG [NTRK2_Y706_T704I_YF]: the enrichment score was inactive: 2.11.
MSRDVYSTDFF [NTRK2_Y702_YF]: the enrichment score was inactive: 0.805.
Consider YKWAVYCIIGR [NUP93_Y391_R388W], for which the enrichment score was inactive: 1.87.
CPPEVYAIMRG [NTRK1_Y757]: the enrichment score is inactive: 0.514.
On the same count and under the same terms, the same measure for SPPEVYAIMRG [NTRK1_Y757_C752S]: inactive: 0.406.
Still for that read-out and setting: in the case of ANSSFHSTRSA [NUMA1_Y1836_Y1836H] it was inactive: 0.373; in that of PESIPYRKFTT [NTRK1_Y701_L700P], inactive: 0.408.
Still for that read-out and setting: the same measure for KGKLIYLLRDS [NXPE1_Y350_G353R]: active: 4.01; for VYSIDYYRVGG [NTRK2_Y706_T704I]: inactive: 1.8.
On to FDAHNYHPLPV [OAT_Y55_G51D_YF], for which the enrichment score is inactive: 0.97.
Same read-out and setting: in the case of VFSTDYFRVGG [NTRK2_Y706_YF] it was inactive: 1.08; in that of RHPEVYHHLGV [NVL_Y290], active: 3.25; in that of ISRDVYSTDFF [NTRK2_Y702_M697I_YF], inactive: 0.869.
Take QAPPIYLDVLG [NTRK1_Y791_V790I]: the enrichment score is inactive: 1.01.
Still for that read-out and setting: the same measure for YGAHNYHPLPV [OAT_Y55]: inactive: 1.03.

The target in a further assay is SHP2 N-SH2 domain T42A. The assay is described as above. The conditions noted are these: peptide library: pTyr-Var.
YSIDYYRVGGH [NTRK2_Y707_T704I]: the enrichment score is inactive: 0.793.
Take FKWAVYCIIGR [NUP93_Y391_R388W_YF]: the enrichment score is inactive: 1.39.
As to DDPRTYQKYGY [OAS1_Y362_R361T], the enrichment score is inactive: 0.488.
For ANSSFYSTRSA [NUMA1_Y1836], the enrichment score was inactive: 0.525.
Same read-out and setting: in the case of VFSIDYFRVGG [NTRK2_Y706_T704I_YF] it was inactive: 2.22.
For MSRDVYSTDFF [NTRK2_Y702_YF], the enrichment score is inactive: 0.719.
With YKWAVYCIIGR [NUP93_Y391_R388W], the enrichment score is inactive: 1.47.
Still for that read-out and setting: the same measure for CPPEVYAIMRG [NTRK1_Y757]: inactive: 0.555.
With SPPEVYAIMRG [NTRK1_Y757_C752S], the enrichment score is inactive: 0.298.
As to ANSSFHSTRSA [NUMA1_Y1836_Y1836H], the enrichment score is inactive: 0.318.
PESIPYRKFTT [NTRK1_Y701_L700P]: the enrichment score was inactive: 0.915.
The same measure, in the same setting: in the case of KGKLIYLLRDS [NXPE1_Y350_G353R] it was active: 3.24; in that of VYSIDYYRVGG [NTRK2_Y706_T704I], inactive: 1.38.
Same read-out and setting: in the case of FDAHNYHPLPV [OAT_Y55_G51D_YF] it was inactive: 0.772.
On the same count and under the same terms, in the case of VFSTDYFRVGG [NTRK2_Y706_YF] it was inactive: 1.01; in that of RHPEVYHHLGV [NVL_Y290], inactive: 2.45; in that of ISRDVYSTDFF [NTRK2_Y702_M697I_YF], inactive: 0.634.
In the case of QAPPIYLDVLG [NTRK1_Y791_V790I], the enrichment score was inactive: 1.07.
As to YGAHNYHPLPV [OAT_Y55], the enrichment score is inactive: 0.856.

In another assay the target is SHP2 N-SH2 domain T52S. The description is as above. Conditions: peptide library: pTyr-Var.
Consider YSIDYYRVGGH [NTRK2_Y707_T704I], for which the enrichment score is inactive: 0.944.
Same read-out and setting: the same measure for FKWAVYCIIGR [NUP93_Y391_R388W_YF]: inactive: 1.26.
On to DDPRTYQKYGY [OAS1_Y362_R361T], for which the enrichment score was inactive: 0.506.
As to ANSSFYSTRSA [NUMA1_Y1836], the enrichment score was inactive: 0.718.
For the molecule VFSIDYFRVGG [NTRK2_Y706_T704I_YF], the enrichment score is inactive: 2.68.
Regarding MSRDVYSTDFF [NTRK2_Y702_YF], the enrichment score was inactive: 0.764.
Still for that read-out and setting: in the case of YKWAVYCIIGR [NUP93_Y391_R388W] it was inactive: 1.96.
For the molecule CPPEVYAIMRG [NTRK1_Y757], the enrichment score is inactive: 0.431.
For SPPEVYAIMRG [NTRK1_Y757_C752S], the enrichment score was inactive: 0.394.
The same measure, in the same setting: in the case of ANSSFHSTRSA [NUMA1_Y1836_Y1836H] it was inactive: 0.295; in that of PESIPYRKFTT [NTRK1_Y701_L700P], inactive: 0.382; in that of KGKLIYLLRDS [NXPE1_Y350_G353R], active: 3.83.
Still for that read-out and setting: in the case of VYSIDYYRVGG [NTRK2_Y706_T704I] it was inactive: 1.56; in that of FDAHNYHPLPV [OAT_Y55_G51D_YF], inactive: 0.908.
Take VFSTDYFRVGG [NTRK2_Y706_YF]: the enrichment score is inactive: 1.13.
The same measure, in the same setting: the same measure for RHPEVYHHLGV [NVL_Y290]: inactive: 3.04.
Still for that read-out and setting: in the case of ISRDVYSTDFF [NTRK2_Y702_M697I_YF] it was inactive: 0.759.
Take QAPPIYLDVLG [NTRK1_Y791_V790I]: the enrichment score was inactive: 0.882.
As to YGAHNYHPLPV [OAT_Y55], the enrichment score is inactive: 0.997.

In another assay the target is SHP2 N-SH2 domain wild-type. The description is as above. Conditions: peptide library: pTyr-Var.
As to YSIDYYRVGGH [NTRK2_Y707_T704I], the enrichment score was inactive: 0.868.
The same measure, in the same setting: in the case of FKWAVYCIIGR [NUP93_Y391_R388W_YF] it was inactive: 1.28.
DDPRTYQKYGY [OAS1_Y362_R361T]: the enrichment score was inactive: 0.649.
Same read-out and setting: the same measure for ANSSFYSTRSA [NUMA1_Y1836]: inactive: 0.536; for VFSIDYFRVGG [NTRK2_Y706_T704I_YF]: inactive: 2.15; for MSRDVYSTDFF [NTRK2_Y702_YF]: inactive: 0.948.
Regarding YKWAVYCIIGR [NUP93_Y391_R388W], the enrichment score is inactive: 1.64.
As for CPPEVYAIMRG [NTRK1_Y757], the enrichment score is inactive: 0.718.
Still for that read-out and setting: the same measure for SPPEVYAIMRG [NTRK1_Y757_C752S]: inactive: 0.558.
Same read-out and setting: in the case of ANSSFHSTRSA [NUMA1_Y1836_Y1836H] it was inactive: 0.461; in that of PESIPYRKFTT [NTRK1_Y701_L700P], inactive: 0.881.
Same read-out and setting: the same measure for KGKLIYLLRDS [NXPE1_Y350_G353R]: active: 3.87; for VYSIDYYRVGG [NTRK2_Y706_T704I]: inactive: 1.4; for FDAHNYHPLPV [OAT_Y55_G51D_YF]: inactive: 0.837.
With VFSTDYFRVGG [NTRK2_Y706_YF], the enrichment score is inactive: 1.28.
RHPEVYHHLGV [NVL_Y290]: the enrichment score is active: 3.28.
Same read-out and setting: the same measure for ISRDVYSTDFF [NTRK2_Y702_M697I_YF]: inactive: 0.945; for QAPPIYLDVLG [NTRK1_Y791_V790I]: inactive: 0.894; for YGAHNYHPLPV [OAT_Y55]: inactive: 1.04.
